# The list shows a part of the results.
# B1: PX9937D-bvu-500-26-500 (Bacteroides vulgatus) (protein)
# chain: DPVSDITDLNYWKTPEQFDSFVFGLHSRFRSHSWNMFLLGEARSDVFGGIPFGGEATQGMERFPYNTLNAENPGISGFGDLYQNINQMNLFISRTLHTDVLTESARNYYLGQVYGLRAYYMYQLYRSWGDVVFTEEPSLGFEVGKLAKAATPAAEIFEQVKKDIESSLSYFGSDYTIKEKKSLWSKAATLMLKADVYLWSAHRDGGEGDARTAKNALVDIQNNISRSNLDLMDTYQGVFAYDNKGNKEIIFTIHNELFEYNLWNGNNDLFPQADYLGKFYNADGTLINTSVENNFGIMRLMVKLENFKKFLPGDTRRDVTLKDVYNKVENGKLELVGVYPHKYWGVMNGSTRVRCDDYPIYRYSDLLLMLAEAKVLLGEDPATEINRVRRRAFGDAYDASTVGFPNQEVDKRPADAVLQERLFEFMLEGKRWYDLRRFGDSYVLDYTPAEPARLLWPINQGALTNNPLLKQTVGY
# What was measured:
# Test in all cases: glycan array binding signal (z-score within array); higher = stronger binding
# Conditions in all cases: glycan notation: IUPAC condensed, linker removed
# [1] = target: Fuc(a1-3)[Gal3S(b1-4)]GlcNAc6S
# How it was run: (§1)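 Columns mapping to the same glycan were averaged after glycan names were converted to IUPAC-condensed notation. The data come from 3228 arrays in the Consortium for Functional Glycomics database, limited to those with an available protein sequence. Binding is reported as a within-array Z-score averaged across arrays of one protein sequence and across linkers.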
# [2] = target: Fuc(a1-3)[GalNAc(b1-4)]GlcNAc
# How it was run: as §1
# [3] = target: Fuc(a1-3)[GalNAc(b1-4)]GlcNAc6S
# How it was run: as §1
# [4] = target: Fuc(a1-4)GlcNAc
# How it was run: as §1
# [5] = target: Fuc(b1-3)GlcNAc
# How it was run: as §1
# [6] = target: Gal(a1-2)Gal
# How it was run: as §1
# [7] = target: Gal(a1-3)Gal
# How it was run: as §1
# [8] = target: Gal(a1-3)Gal(b1-3)GlcNAc
# How it was run: as §1
# [9] = target: Gal(a1-3)Gal(b1-3)GlcNAc(b1-2)Man
# How it was run: as §1
# [10] = target: Gal(a1-3)Gal(b1-3)GlcNAc(b1-2)Man(a1-3)[Gal(a1-3)Gal(b1-3)GlcNAc(b1-2)Man(a1-6)]Man(b1-4)GlcNAc(b1-4)GlcNAc
# How it was run: as §1
# [11] = target: Gal(a1-3)Gal(b1-3)GlcNAc(b1-3)GalNAc
# How it was run: as §1
# [12] = target: Gal(a1-3)Gal(b1-3)GlcNAc(b1-6)GalNAc
# How it was run: as §1
# [13] = target: Gal(a1-3)Gal(b1-3)[Fuc(a1-4)]GlcNAc(b1-2)Man(a1-3)[Gal(a1-3)Gal(b1-3)[Fuc(a1-4)]GlcNAc(b1-2)Man(a1-6)]Man(b1-4)GlcNAc(b1-4)GlcNAc
# How it was run: as §1
# [14] = target: Gal(a1-3)Gal(b1-4)Glc
# How it was run: as §1
# [15] = target: Gal(a1-3)Gal(b1-4)GlcNAc
# How it was run: as §1
# [16] = target: Gal(a1-3)Gal(b1-4)GlcNAc(b1-2)Man
# How it was run: as §1
# [17] = target: Gal(a1-3)Gal(b1-4)GlcNAc(b1-2)Man(a1-3)[Gal(a1-3)Gal(b1-4)GlcNAc(b1-2)Man(a1-6)]Man(b1-4)GlcNAc(b1-4)GlcNAc
# How it was run: as §1
# [18] = target: Gal(a1-3)Gal(b1-4)GlcNAc(b1-3)GalNAc
# How it was run: as §1
# [19] = target: Gal(a1-3)Gal(b1-4)GlcNAc(b1-6)GalNAc
# How it was run: as §1
# [20] = target: Gal(a1-3)Gal(b1-4)[Fuc(a1-3)]GlcNAc
# How it was run: as §1
# [21] = target: Gal(a1-3)Gal(b1-4)[Fuc(a1-3)]GlcNAc(b1-2)Man(a1-3)[Gal(a1-3)Gal(b1-4)[Fuc(a1-3)]GlcNAc(b1-2)Man(a1-6)]Man(b1-4)GlcNAc(b1-4)GlcNAc
# How it was run: as §1
# [22] = target: Gal(a1-3)GalNAc
# How it was run: as §1
# [23] = target: Gal(a1-3)[Gal(a1-4)]Gal(b1-4)GlcNAc
# How it was run: as §1
# [24] = target: Gal(a1-4)Gal(b1-3)GlcNAc(b1-2)Man(a1-3)[Gal(a1-4)Gal(b1-3)GlcNAc(b1-2)Man(a1-6)]Man(b1-4)GlcNAc(b1-4)GlcNAc
# How it was run: as §1
# [25] = target: Gal(a1-4)Gal(b1-4)Glc
# How it was run: as §1
# [26] = target: Gal(a1-4)Gal(b1-4)GlcNAc
# How it was run: as §1
# [27] = target: Gal(a1-4)Gal(b1-4)GlcNAc(b1-2)Man(a1-3)[Gal(a1-4)Gal(b1-4)GlcNAc(b1-2)Man(a1-6)]Man(b1-4)GlcNAc(b1-4)GlcNAc
# How it was run: as §1
# [28] = target: Gal(a1-4)Gal(b1-4)GlcNAc(b1-3)Gal(b1-4)Glc
# How it was run: as §1
# [29] = target: Gal(a1-4)GlcNAc
# How it was run: as §1
# [30] = target: Gal(a1-6)Glc
# How it was run: as §1
# [31] = target: Gal(b1-2)Gal
# How it was run: as §1
# [32] = target: Gal(b1-3)Gal
# How it was run: as §1
# [33] = target: Gal(b1-3)Gal(b1-4)GlcNAc
# How it was run: as §1
# [34] = target: Gal(b1-3)GalNAc
# How it was run: as §1
# [35] = target: Gal(b1-3)GalNAc(a1-3)[Fuc(a1-2)]Gal(b1-4)Glc
# How it was run: as §1
# [36] = target: Gal(b1-3)GalNAc(a1-3)[Fuc(a1-2)]Gal(b1-4)GlcNAc
# How it was run: as §1
# [37] = target: Gal(b1-3)GalNAc(b1-3)Gal
# How it was run: as §1
# [38] = target: Gal(b1-3)GalNAc(b1-3)Gal(a1-4)Gal(b1-4)Glc
# How it was run: as §1
# [39] = target: Gal(b1-3)GalNAc(b1-4)Gal(b1-4)Glc
# How it was run: as §1
# [40] = target: Gal(b1-3)GalNAc(b1-4)[Neu5Ac(a2-3)]Gal(b1-4)Glc
# How it was run: as §1
# [41] = target: Gal(b1-3)GlcNAc
# How it was run: as §1
# [42] = target: Gal(b1-3)GlcNAc(a1-3)Gal(b1-4)GlcNAc
# How it was run: as §1
# [43] = target: Gal(b1-3)GlcNAc(a1-6)Gal(b1-4)GlcNAc
# How it was run: as §1
# [44] = target: Gal(b1-3)GlcNAc(b1-2)Man
# How it was run: as §1
# [45] = target: Gal(b1-3)GlcNAc(b1-2)Man(a1-3)[Gal(b1-3)GlcNAc(b1-2)Man(a1-6)]Man(b1-4)GlcNAc(b1-4)GlcNAc
# How it was run: as §1
binder,measurement,setting,value
B1,glycan array binding signal (z-score),[1],0.002
same,glycan array binding signal (z-score),[2],0.015
same,glycan array binding signal (z-score),[3],-0.222
same,glycan array binding signal (z-score),[4],-0.443
same,glycan array binding signal (z-score),[5],-0.499
same,glycan array binding signal (z-score),[6],-0.519
same,glycan array binding signal (z-score),[7],-0.287
same,glycan array binding signal (z-score),[8],0.353
same,glycan array binding signal (z-score),[9],4.49
same,glycan array binding signal (z-score),[10],0.166
same,glycan array binding signal (z-score),[11],-0.65
same,glycan array binding signal (z-score),[12],-0.681
same,glycan array binding signal (z-score),[13],0.78
same,glycan array binding signal (z-score),[14],-0.457
same,glycan array binding signal (z-score),[15],-0.573
same,glycan array binding signal (z-score),[16],-0.058
same,glycan array binding signal (z-score),[17],-0.145
same,glycan array binding signal (z-score),[18],-0.404
same,glycan array binding signal (z-score),[19],1.21
same,glycan array binding signal (z-score),[20],-0.427
same,glycan array binding signal (z-score),[21],0.656
same,glycan array binding signal (z-score),[22],-0.426
same,glycan array binding signal (z-score),[23],2.38
same,glycan array binding signal (z-score),[24],-0.769
same,glycan array binding signal (z-score),[25],-0.13
same,glycan array binding signal (z-score),[26],-0.06
same,glycan array binding signal (z-score),[27],9.96
same,glycan array binding signal (z-score),[28],0.006
same,glycan array binding signal (z-score),[29],-0.369
same,glycan array binding signal (z-score),[30],0.278
same,glycan array binding signal (z-score),[31],-0.134
same,glycan array binding signal (z-score),[32],0.039
same,glycan array binding signal (z-score),[33],-0.412
same,glycan array binding signal (z-score),[34],-0.281
same,glycan array binding signal (z-score),[35],-0.139
same,glycan array binding signal (z-score),[36],-0.372
same,glycan array binding signal (z-score),[37],0.096
same,glycan array binding signal (z-score),[38],-0.326
same,glycan array binding signal (z-score),[39],0.127
same,glycan array binding signal (z-score),[40],0.044
same,glycan array binding signal (z-score),[41],-0.361
same,glycan array binding signal (z-score),[42],-0.022
same,glycan array binding signal (z-score),[43],0.107
same,glycan array binding signal (z-score),[44],-0.031
same,glycan array binding signal (z-score),[45],4.38

# — the supplement of paper PMC8728848
